# Reference: PubChem BioAssay AID624417 (National Center for Advancing Translational Sciences (NCATS), 2012)
# Among all 410,000 compounds or so, about 6,400 (1.6%) were called active. The inconclusive results got no clear call from the source; some entries with a clear call stand among them for comparison. Calls come from the whole dose curve; as a rule, active = well fitted inhibition curve with a large enough effect; inconclusive = small, poorly fitted or top-dose-only effect; inactive = no such curve, though single readings can be large or run the other way. No potency is given beside an inconclusive call; the fits are too rough.
# Molecular target: Glucagon-like peptide 1 receptor (Homo sapiens) (UniProt P43220)
# Sequence of UniProt P43220 (P43220 whole entry, looked up): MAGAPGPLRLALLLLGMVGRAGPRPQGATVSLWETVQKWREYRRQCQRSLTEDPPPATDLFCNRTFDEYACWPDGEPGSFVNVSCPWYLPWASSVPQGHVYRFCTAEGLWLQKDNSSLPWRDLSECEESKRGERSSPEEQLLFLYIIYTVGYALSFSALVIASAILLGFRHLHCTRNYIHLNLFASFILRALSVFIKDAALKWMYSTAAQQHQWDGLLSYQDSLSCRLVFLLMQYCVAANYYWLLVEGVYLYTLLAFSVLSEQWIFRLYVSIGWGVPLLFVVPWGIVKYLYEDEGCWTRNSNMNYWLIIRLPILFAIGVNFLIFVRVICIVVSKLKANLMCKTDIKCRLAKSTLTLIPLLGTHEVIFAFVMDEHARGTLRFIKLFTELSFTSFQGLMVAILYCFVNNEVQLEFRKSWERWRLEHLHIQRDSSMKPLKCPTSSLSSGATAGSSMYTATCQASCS
# Test: qHTS of GLP-1 Receptor Inverse Agonists (Inhibition Mode); note: nearly all actives have a fitted effect of over 55% in size
# Conditions: HEK293 GLP-1R CRE-luciferase, luminescence, 24 h, GLP-1R form is constitutively active; activity change, negative = inhibition: at 38.3 µM (top of the series) unless noted
# Method in brief: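 Using stably transfected HEK293 (constitutively active GLP-1R, cAMP-luciferase reporter), compounds were incubated 24 hr and luciferase measured by luminescence.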
# % is set by controls: 0 for no effect and ±100 for the full control effect; potency is the fitted concentration of half-maximal effect; tags give direction and shape of the fitted curve.
Structure (SMILES),Potency,"activity change, negative = inhibition"
CCCCn1nc(C(=O)N(C)CC(=O)Nc2cccc(F)c2)c2ccccc2c1=O,"inconclusive [inhibitor, single point]",–
O=C(Nc1ccc(C(F)(F)F)cc1)c1cccc(-n2cnnn2)c1,"inconclusive [inhibitor, partial curve, poor fit]",–
COc1ccccc1NC(=O)CC1Sc2ccc(C(F)(F)F)cc2NC1=O (centres undefined),–,inactive: 1.47%
COC(=O)c1cc(NC(=O)Cc2coc3cc(OC)ccc23)cc(C(=O)OC)c1,"inconclusive [inhibitor, partial curve, poor fit]",–
CCOC(=O)Cc1csc(NC(=S)NC(=O)c2ccccc2Br)n1,"inconclusive [inhibitor, single point]",–
O=C(CSc1nc(Cc2ccccc2)nc2ccccc12)c1ccc2c(c1)OCCO2,"inconclusive [inhibitor, partial curve, poor fit]",–
CC1(C)CC(NC(=O)COc2ccccc2Cl)CC(C)(C)N1,"inconclusive [inhibitor, single point]",–
O=C(Nc1cccc(-n2cccn2)c1)C1CCCN(Cc2cc3ccccc3[nH]2)C1 (centres undefined),"inconclusive [inhibitor, partial curve, poor fit]",–
C[C@@H]1CN(C2CCN(Cc3nc(C(c4ccccc4)c4ccccc4)no3)CC2)C[C@H](C)O1,"inconclusive [inhibitor, single point]",–
CC(C)(C)NC(=O)C(c1cc2ccccc2o1)n1c(=O)c(-c2cc3ccccc3[nH]2)nc2ccccc21 (centres undefined),"inconclusive [inhibitor, partial curve, poor fit]",–
CCN1C(=O)[C@H]2[C@@H](c3ccc(C)cc3)N3C(=O)N(c4cccc(Br)c4)C(=O)[C@@]3(Cc3ccccc3)[C@H]2C1=O,"inconclusive [inhibitor, partial curve, poor fit]",–
Cc1ccc(Sc2ncccc2C(=O)NCc2cc([N+](=O)[O-])ccc2O)c(C)c1,–,inactive: 72.6%
CC(C)CCOc1cccc(OCC(=O)Nc2ccncc2)c1,"inconclusive [inhibitor, single point]",–
CN1/C(=C\C=O)C(C)(C)c2ccccc21,–,inactive: 13.1%
Nc1cc(Cl)ccc1Oc1ccc2ccccc2c1,"inconclusive [inhibitor, single point]",–
O=C1CC(c2ccc(OCCCCCOc3ccc(C4CC(=O)NC4=O)cc3)cc2)C(=O)N1 (centres undefined),"inconclusive [inhibitor, partial curve, poor fit]",–
CCCC(=O)OC/C(O)=C(\C#N)c1nc2ccccc2[nH]1,"inconclusive [inhibitor, partial curve, poor fit]",–
Cc1ccccc1NC(=O)C1(NC(=O)c2cccc(N3C(=O)CSC3c3ccccc3)c2)CCCCC1 (centres undefined),"inconclusive [inhibitor, single point]",–
CCOC(=O)c1cccc(NC(=O)CCOc2ccccc2)c1,"inconclusive [inhibitor, single point]",–
FC(F)(F)c1cccc(/C=N/NC(=S)NC2CCCCC2)c1,"inconclusive [inhibitor, partial curve, poor fit]",–

Structure (SMILES),Potency,"activity change, negative = inhibition"
O=C1Nc2ccccc2SC1c1ccccc1 (centres undefined),"inconclusive [inhibitor, single point]",–
CCCOc1ccc(F)cc1-c1cc(C(=O)Nc2ccc(F)c(Cl)c2)[nH]n1,"inconclusive [inhibitor, single point]",–
CCCCNC(=O)c1onc(CSc2cccc(C)c2)c1C(=O)O,"inconclusive [inhibitor, single point]",–
COc1ccccc1C(CNC(=S)NCc1ccccc1)N1CCCC1 (centres undefined),"inconclusive [inhibitor, single point]",–
CCOc1ccc(-c2nnc(N3CCCCC3)c3ccccc23)cc1,"inconclusive [inhibitor, partial curve, poor fit]",–
O=C(c1ccc(OC2CCN(C/C=C/c3ccc(F)cc3)CC2)cc1)N1CCCCC1,"inconclusive [inhibitor, partial curve, poor fit]",–
Nc1ccccc1SCc1csc(-c2ccc(Cl)cc2)n1,active: 10 µM,–
COc1ccc(C2CC(c3ccccc3)=NN2C(=O)CN2CCN(Cc3ccccc3)CC2)cc1 (centres undefined),"inconclusive [inhibitor, partial curve, poor fit]",–
CCOc1ccc(OCc2ccc(C(=O)NC(C)(C)C)o2)cc1,"inconclusive [inhibitor, partial curve, poor fit]",–
COc1cccc(C2CNC3(CCCC(C)C3)c3[nH]c4ccccc4c32)c1OC (centres undefined),"inconclusive [inhibitor, partial curve, poor fit]",–
COc1ccc(F)c(CN2CCC(n3nccc3NC(=O)CCCc3ccccc3)CC2)c1,"inconclusive [inhibitor, single point]",–
CCn1c(=O)c([N+](=O)[O-])c(NCCN(C)C)c2ccccc21,–,inactive: 0.954%
CC(NC(=O)c1ccc(CS(=O)(=O)c2ccc(Cl)cc2)o1)c1ccc2c(c1)OCCO2 (centres undefined),"inconclusive [inhibitor, partial curve, poor fit]",–
C=C(C)C(=O)NNc1ccccc1,"inconclusive [inhibitor, full curve, poor fit]",–
COc1cc(OC)c(OC)cc1/C=C/c1cc(C(=O)O)c2ccccc2n1,–,inactive: 12.9%
COc1cccc(CNC(=O)c2cc(S(=O)(=O)N3CCCCC3)cn2C)c1,"inconclusive [inhibitor, full curve, poor fit]",–
COc1cccc(CN2CCC(C(=O)Nc3ccc(-c4cccc(C)c4)cc3)CC2)c1O,"inconclusive [inhibitor, partial curve, poor fit]",–
COc1ccc(C)cc1NC(=O)c1nnn(Cc2cccc(C(F)(F)F)c2)c1N,"inconclusive [inhibitor, full curve, poor fit]",–
Cc1ccc(C(=O)Nc2nnc(S(=O)(=O)N3c4ccccc4CC3C)s2)cc1 (centres undefined),"inconclusive [inhibitor, single point]",–
